Assay results published in the supplement of paper PMC4604168 (melanoma cell lines).
Some of the results follow. Repeats are few or missing, and single values can be far off.

What follows are compounds tested on SkMel5 (assay: cell count relative to DMSO control; melanoma cells; higher = more viable cells). Conditions: library dose: standard library concentration; 72 h.
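Note: cells treated in 1,536-well plates, then fixed and DAPI-stained, with nuclei counted from automated high-throughput microscope images.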

Row | SMILES | cell count [%]
1 | Clc1ccc(Nc2nnc(Cc3ccncc3)c3ccccc23)cc1 [vatalanib] + COc1ccc(COc2ccc(Cc3cnc(N)nc3N)cc2OC)cc1 [GW2580] (first compound 10 µM, partner dose 5 µM) | 53.4
2 | COCC[n+]1c2c(n(Cc3cnccn3)c1C)C(=O)c1ccccc1C2=O + CN(C)S(=O)(=O)c1ccc2c(c1)/C(=C/c1cc3c([nH]1)CCCC3)C(=O)N2 [SU6656] (first compound 0.002 µM, partner dose 2 µM) | 52.9
3 | Clc1ccc(Nc2nnc(Cc3ccncc3)c3ccccc23)cc1 [vatalanib] + Cn1cc(/C=C2\C(=O)Nc3cccnc32)c2ccccc21 [GW441756] (first compound 10 µM, partner dose 2 µM) | 65.1

Each compound was assayed on UACC257 in the same assay as above. Conditions: library dose: standard library concentration; 72 h.

Row | SMILES | cell count [%]
4 | Clc1ccc(Nc2nnc(Cc3ccncc3)c3ccccc23)cc1 [vatalanib] + O=S(=O)(c1ccccc1)N(CC(F)(F)F)c1ccc(C(O)(C(F)(F)F)C(F)(F)F)cc1 [T0901317] (first compound 10 µM, partner dose 7 µM) | 74
5 | Clc1ccc(Nc2nnc(Cc3ccncc3)c3ccccc23)cc1 [vatalanib] + Oc1cc(-c2nc(-c3ccccc3)[nH]c2-c2ccncc2)ccc1Cl [L779450] (first compound 10 µM, partner dose 1 µM) | 90
6 | OCc1c[nH]c2ccccc12 [Indole-3-carbinol] + O=S(=O)(c1ccccc1)N(CC(F)(F)F)c1ccc(C(O)(C(F)(F)F)C(F)(F)F)cc1 [T0901317] (first compound 4 µM, partner dose 7 µM) | 83.3
7 | Clc1ccc(Nc2nnc(Cc3ccncc3)c3ccccc23)cc1 [vatalanib] + COC(=O)c1sccc1S(=O)(=O)Nc1ccc(Nc2ccccc2)cc1OC [GSK0660] (first compound 10 µM, partner dose 5 µM) | 55.6
8 | OCc1c[nH]c2ccccc12 [Indole-3-carbinol] + NCC(=O)Nc1ccc(-n2nc(C(F)(F)F)cc2-c2ccc3c(ccc4ccccc43)c2)cc1 [OSU03012] (first compound 4 µM, partner dose 5 µM) | 72.6
9 | Clc1ccc(Nc2nnc(Cc3ccncc3)c3ccccc23)cc1 [vatalanib] + CCN(CC)CCCCNc1ncc2cc(-c3cc(OC)cc(OC)c3)c(NC(=O)NC(C)(C)C)nc2n1 [PD173074] (first compound 10 µM, partner dose 0.5 µM) | 70.1
10 | OCc1c[nH]c2ccccc12 [Indole-3-carbinol] + CC(C)CCN1c2nc(Nc3cc(F)c(O)c(F)c3)ncc2N(C)C(=O)C1C [BID1870] (first compound 4 µM, partner dose 1 µM) | 80.8
11 | OCc1c[nH]c2ccccc12 [Indole-3-carbinol] + O=C(O)C(=O)Nc1sc2c(c1C(=O)O)CCNC2 [TCS401] (first compound 4 µM, partner dose 8.33333 µM) | 90.6
12 | Clc1ccc(Nc2nnc(Cc3ccncc3)c3ccccc23)cc1 [vatalanib] + COc1cc(N2CCC(N3CCN(C)CC3)CC2)ccc1Nc1ncc(Cl)c(Nc2ccccc2S(=O)(=O)C(C)C)n1 [NVP-TAE684] (first compound 10 µM, partner dose 0.4 µM) | 72
13 | OCc1c[nH]c2ccccc12 [Indole-3-carbinol] + COc1ccc2c(c1)CCC1C2CCC2(C)C(NCCCCCCN3C(=O)C=CC3=O)CCC12 [U73122] (first compound 4 µM, partner dose 2 µM) | 84.2
14 | OCc1c[nH]c2ccccc12 [Indole-3-carbinol] + N#Cc1c(O)c2c(-c3ccc(-c4ccccc4O)cc3)csc2[nH]c1=O [A769662] (first compound 4 µM, partner dose 10 µM) | 92
15 | OCc1c[nH]c2ccccc12 [Indole-3-carbinol] + CCN(CC)CCCCNc1ncc2cc(-c3cc(OC)cc(OC)c3)c(NC(=O)NC(C)(C)C)nc2n1 [PD173074] (first compound 4 µM, partner dose 0.5 µM) | 117
16 | OCc1c[nH]c2ccccc12 [Indole-3-carbinol] + Oc1cc(-c2nc(-c3ccccc3)[nH]c2-c2ccncc2)ccc1Cl [L779450] (first compound 4 µM, partner dose 1 µM) | 91.8
17 | Clc1ccc(Nc2nnc(Cc3ccncc3)c3ccccc23)cc1 [vatalanib] + O=c1cc(-c2cccc3c2Sc2ccccc2S3)oc(N2CCOCC2)c1 [KU55933] (first compound 10 µM, partner dose 5 µM) | 76.5
18 | OCc1c[nH]c2ccccc12 [Indole-3-carbinol] + O=C1NC(=O)/C(=C/c2ccc(-c3ccc(F)cc3O)o2)S1 [AS252424] (first compound 4 µM, partner dose 5 µM) | 88.3
19 | OCc1c[nH]c2ccccc12 [Indole-3-carbinol] + CCc1ccc(CCOc2ccc(CC3SC(=O)NC3=O)cc2)nc1 [pioglitazone] (first compound 4 µM, partner dose 10 µM) | 91.1
20 | OCc1c[nH]c2ccccc12 [Indole-3-carbinol] + COc1ccc(-c2ccc3c(N4CCOCC4)nc(N4C[C@@H](C)O[C@@H](C)C4)nc3n2)cc1CO [KU0063794] (first compound 4 µM, partner dose 0.1 µM) | 94.1

Row | SMILES | cell count [%]
21 | OCc1c[nH]c2ccccc12 [Indole-3-carbinol] + CCCCCCCCCCCC1=C(O)C(=O)C=C(O)C1=O [Embelin] (first compound 4 µM, partner dose 6 µM) | 89.1
22 | Clc1ccc(Nc2nnc(Cc3ccncc3)c3ccccc23)cc1 [vatalanib] + CCCCCCCCCCCC1=C(O)C(=O)C=C(O)C1=O [Embelin] (first compound 10 µM, partner dose 6 µM) | 73.4
23 | Clc1ccc(Nc2nnc(Cc3ccncc3)c3ccccc23)cc1 [vatalanib] + c1cc(-c2cnn3cc(-c4ccc(OCCN5CCCCC5)cc4)cnc23)ccn1 [Dorsomorphin] (first compound 10 µM, partner dose 2 µM) | 77.8
24 | Clc1ccc(Nc2nnc(Cc3ccncc3)c3ccccc23)cc1 [vatalanib] + CCc1ccc(CCOc2ccc(CC3SC(=O)NC3=O)cc2)nc1 [pioglitazone] (first compound 10 µM, partner dose 10 µM) | 67.3
25 | OCc1c[nH]c2ccccc12 [Indole-3-carbinol] + COC(=O)c1sccc1S(=O)(=O)Nc1ccc(Nc2ccccc2)cc1OC [GSK0660] (first compound 4 µM, partner dose 5 µM) | 106
26 | Clc1ccc(Nc2nnc(Cc3ccncc3)c3ccccc23)cc1 [vatalanib] + O=C(Nc1ccccc1)c1cc([N+](=O)[O-])ccc1Cl [GW9662] (first compound 10 µM, partner dose 10 µM) | 60.5
27 | OCc1c[nH]c2ccccc12 [Indole-3-carbinol] + c1cc(-c2cnn3cc(-c4ccc(OCCN5CCCCC5)cc4)cnc23)ccn1 [Dorsomorphin] (first compound 4 µM, partner dose 2 µM) | 68.5
28 | OCc1c[nH]c2ccccc12 [Indole-3-carbinol] + O=c1cc(-c2cccc3c2Sc2ccccc2S3)oc(N2CCOCC2)c1 [KU55933] (first compound 4 µM, partner dose 5 µM) | 80.3
29 | OCc1c[nH]c2ccccc12 [Indole-3-carbinol] + COc1cc2ncnc(Nc3ccc(Oc4ccccc4)cc3)c2cc1OC [SrcI1] (first compound 4 µM, partner dose 10 µM) | 85.7
30 | OCc1c[nH]c2ccccc12 [Indole-3-carbinol] + Cn1cc(/C=C2\C(=O)Nc3cccnc32)c2ccccc21 [GW441756] (first compound 4 µM, partner dose 2 µM) | 88.2
31 | OCc1c[nH]c2ccccc12 [Indole-3-carbinol] + Oc1nc(-c2ccc(C(F)(F)F)cc2)nc2c1CSCC2 [XAV939] (first compound 4 µM, partner dose 10 µM) | 86.2
32 | Clc1ccc(Nc2nnc(Cc3ccncc3)c3ccccc23)cc1 [vatalanib] + N#Cc1c(O)c2c(-c3ccc(-c4ccccc4O)cc3)csc2[nH]c1=O [A769662] (first compound 10 µM, partner dose 10 µM) | 82.7
33 | Clc1ccc(Nc2nnc(Cc3ccncc3)c3ccccc23)cc1 [vatalanib] + O=C(O)C(=O)Nc1sc2c(c1C(=O)O)CCNC2 [TCS401] (first compound 10 µM, partner dose 8.33333 µM) | 86.4
34 | Clc1ccc(Nc2nnc(Cc3ccncc3)c3ccccc23)cc1 [vatalanib] + COc1ccc(-c2ccc3c(N4CCOCC4)nc(N4C[C@@H](C)O[C@@H](C)C4)nc3n2)cc1CO [KU0063794] (first compound 10 µM, partner dose 0.1 µM) | 74.3
35 | Clc1ccc(Nc2nnc(Cc3ccncc3)c3ccccc23)cc1 [vatalanib] + CC(C)CCN1c2nc(Nc3cc(F)c(O)c(F)c3)ncc2N(C)C(=O)C1C [BID1870] (first compound 10 µM, partner dose 1 µM) | 81.3
36 | OCc1c[nH]c2ccccc12 [Indole-3-carbinol] + O=C(Nc1ccccc1)c1cc([N+](=O)[O-])ccc1Cl [GW9662] (first compound 4 µM, partner dose 10 µM) | 88.2
